The other results are listed elsewhere or left out.

The test has as its target T1, OsWOX13 (Oryza sativa, UniProt Q5QMM3 1-267).
T1 sequence: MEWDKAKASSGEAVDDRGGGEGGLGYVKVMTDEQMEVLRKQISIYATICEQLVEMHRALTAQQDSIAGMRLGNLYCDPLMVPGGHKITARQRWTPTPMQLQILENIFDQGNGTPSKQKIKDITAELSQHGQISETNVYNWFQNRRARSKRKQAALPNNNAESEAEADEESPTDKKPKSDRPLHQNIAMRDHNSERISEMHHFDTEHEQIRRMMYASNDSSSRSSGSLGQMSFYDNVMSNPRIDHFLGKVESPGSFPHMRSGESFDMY
Kind of test: protein-binding microarray (RPBM); PBS, 2% BSA, 51.3 ng/ul salmon testes DNA, 50 uM zinc acetate, 200 nM TF, 25 C, 1 h; high values mean tight binding. To be noted: protein: recombinant; tags: N-terminal polyhistidine and DsRed monomer fusion (pET32a); label: CyDye5-dUTP incorporated in the synthesized complementary strand; 3' TTTTT single-stranded linker to array surface; dsDNA, one strand shown. Put shortly: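 Polyhistidine-tagged DsRed fusions of transcription factors, joined at the N-terminus, were expressed in E. coli BL21-CodonPlus and isolated on Ni–NTA. They were incubated at 200 nM for 1 h at 25 °C on a custom Agilent array, double-stranded and BSA-blocked, in PBS with 2% BSA, salmon testes DNA and 50 µM zinc acetate. The binding signal is per-feature fluorescence intensity (arbitrary units) read on an Axon 4000B scanner after washing.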
As for “ATCGTAGTGTAATTACACTGTAACTTATATGTAATTACACCGGAGTCACCTAGTGCAG”, the binding signal is 12100 fluorescence intensity (a.u.).

Consider “GTGTAATTACACTATAATTGCACTATAATTATATCTGTCACGGAGTCACCTAGTGCAG”, for which the binding signal was 61500 fluorescence intensity (a.u.). As to “TGTGTTTGATCAATCAGCTCCAAACTTTCGTTATTTATTTCGGAGTCACCTAGTGCAG”, the binding signal is 7050 fluorescence intensity (a.u.).

Take “CACGTAGGCGCTAATTAGGGCACCCACAATGGTTATCTATCGGAGTCACCTAGTGCAG”: the binding signal is 4920 fluorescence intensity (a.u.). In the case of “TCCTATAGAAAATTTTCCTATTTGACCCTTTGATTCAAATCGGAGTCACCTAGTGCAG”, the binding signal was 3540 fluorescence intensity (a.u.).

On to “TTTTGATTTGGGAAGGGAGGTGCATGGGTATAGCATAAAGCGGAGTCACCTAGTGCAG”, for which the binding signal was 5280 fluorescence intensity (a.u.). “CGGTGGGATTGGTTTAACGTGGGTGCTAATGGGGAAGCTACGGAGTCACCTAGTGCAG”: the binding signal was 15300 fluorescence intensity (a.u.). For the sequence “TGCTTGGAATCAATTACCTGCTCACGCAAAGAGGAGAGGCCGGAGTCACCTAGTGCAG”, the binding signal was 4220 fluorescence intensity (a.u.). For the sequence “TTGGATTAATTGCCAAGGAATTGTGGAGTCATGTAGTAGTCGGAGTCACCTAGTGCAG”, the binding signal was 42200 fluorescence intensity (a.u.).

For the sequence “TAAATAGAATTTATAATTTCTTCTAATAAAACGAATAGTTCGGAGTCACCTAGTGCAG”, the binding signal was 5240 fluorescence intensity (a.u.). As for “GTAAGTTTCATAAATTACACTGTAATTTACAAGAAAACACCGGAGTCACCTAGTGCAG”, the figure is 11100 fluorescence intensity (a.u.); as for “ATTGATTTCTCAGTCCATGGGCCATGAGTATGTTCTGGAGCGGAGTCACCTAGTGCAG”, 10900 fluorescence intensity (a.u.). As for “TACTCATGATTACGTAAATAATGAGAGACGCTATTTACTCCGGAGTCACCTAGTGCAG”, the figure is 16500 fluorescence intensity (a.u.); as for “TATATGTCTGATTGCTATTCCAGCCTCTAGCAGCACAGAACGGAGTCACCTAGTGCAG”, 15500 fluorescence intensity (a.u.); as for “ACTTAAATTAAACACTAAGGATGCATTATTTTCAACTCATCGGAGTCACCTAGTGCAG”, 3780 fluorescence intensity (a.u.). For the sequence “TCGGATGAGTGGCTTATAGATTTGAATTTGATGGTCTGCTCGGAGTCACCTAGTGCAG”, the binding signal was 3620 fluorescence intensity (a.u.). Consider “TGGGTGATTGATTAGTACTACTGCTGCATCTGCACTGCATCGGAGTCACCTAGTGCAG”, for which the binding signal is 38400 fluorescence intensity (a.u.).

Turning to “TTTGACGGTAAATTGACCATTCTTATGGAGCGACCATACACGGAGTCACCTAGTGCAG”, the binding signal was 28000 fluorescence intensity (a.u.).

With “AAGAAATGCGAATAATTAACTGGCTAAACTGTTTGGGTGGCGGAGTCACCTAGTGCAG”, the binding signal was 21900 fluorescence intensity (a.u.). For the sequence “TGAAAATGATTTGGGATGGCATTTCAGCGGGTTGGGCTCACGGAGTCACCTAGTGCAG”, the binding signal is 22000 fluorescence intensity (a.u.).

In the case of “ACTGCCCCTGATTAATTCTAATTATTTACCTGAATTGCCACGGAGTCACCTAGTGCAG”, the binding signal was 32100 fluorescence intensity (a.u.).

Consider “CATAATATTGATTGATGCGTGTGAAACATGAACAAGCTTCCGGAGTCACCTAGTGCAG”, for which the binding signal was 47900 fluorescence intensity (a.u.). Consider “GTCACTAGCTTGATTAATGTGGCACTTTCAGATGCTGCCTCGGAGTCACCTAGTGCAG”, for which the binding signal is 4950 fluorescence intensity (a.u.).

As to “TTATGTTGGGAAGATTGATAGGGAGTGATCGCCTCACTGGCGGAGTCACCTAGTGCAG”, the binding signal was 12900 fluorescence intensity (a.u.). With “TATGTATGCATTGATTGCTAAACATTTTCACATGTGCATTCGGAGTCACCTAGTGCAG”, the binding signal was 14700 fluorescence intensity (a.u.). Take “CGGAATTGCAACAATAATCATAGCAGCCGCGCGAAACGACCGGAGTCACCTAGTGCAG”: the binding signal was 5200 fluorescence intensity (a.u.). In the case of “GATAATTTTCTCCGTTATCATTACATCAAACTGTTAGGTCCGGAGTCACCTAGTGCAG”, the binding signal was 21000 fluorescence intensity (a.u.). As for “TGGAACTTAATTTGAAAACAGAGGGTGTATTCTGCAACTCCGGAGTCACCTAGTGCAG”, the figure is 5070 fluorescence intensity (a.u.); as for “AGCAATTATTGTATGAATTGGCTATTACATTAGCTATAAACGGAGTCACCTAGTGCAG”, 6390 fluorescence intensity (a.u.). On to “CCAAGGGGTGCTAAATGGGGCTAATTTTGTGTGGGGACCACGGAGTCACCTAGTGCAG”, for which the binding signal was 3500 fluorescence intensity (a.u.). Consider “TTAATTGATTCCATGAAGGTATAATGATACTTTTATGGTACGGAGTCACCTAGTGCAG”, for which the binding signal was 65000 fluorescence intensity (a.u.). “GCACGCTCAATTACCATACACATCAGCTAACAAGTAATAACGGAGTCACCTAGTGCAG”: the binding signal is 5130 fluorescence intensity (a.u.). On to “TCACTGACGAACAATCTGATTCGCGTACACATGCTGGCCCCGGAGTCACCTAGTGCAG”, for which the binding signal was 6520 fluorescence intensity (a.u.). For “AGTAAATAATTAAACTAGACTTAACCCTTCCTTCCAAATTCGGAGTCACCTAGTGCAG”, the binding signal is 6310 fluorescence intensity (a.u.).

Consider “TAAACTAATTTGGTGGTCGTGATTCCTACCACTTTTATTTCGGAGTCACCTAGTGCAG”, for which the binding signal is 12700 fluorescence intensity (a.u.).

With “AGGGAGGAAGTAATTGATGTGGAAGAAAAGATAACTCATTCGGAGTCACCTAGTGCAG”, the binding signal was 4200 fluorescence intensity (a.u.). The result for “AGTAGATTGAAAATGTTTCACTCGTTTAAATCGGGTGTTGCGGAGTCACCTAGTGCAG” reads 49000 fluorescence intensity (a.u.); that for “AGTAATTGACATATAATAAATAATCATCTAAGACGACATACGGAGTCACCTAGTGCAG”, 37500 fluorescence intensity (a.u.); that for “AAGCAAAACTGATTCATTAGATTGAATCTGTGAATTCCCTCGGAGTCACCTAGTGCAG”, 21500 fluorescence intensity (a.u.). Take “ATCAAATGAGACAATTATTGATAAGGAGACACTCCATATTCGGAGTCACCTAGTGCAG”: the binding signal is 20200 fluorescence intensity (a.u.).

Consider “AATATGCAGATTAGCAAGTTAACGACAAAATGGAGATAACCGGAGTCACCTAGTGCAG”, for which the binding signal was 4420 fluorescence intensity (a.u.). Consider “TGGCTTGATTGGCTTGACTCACATGGCCTTGTGGCCTCTCCGGAGTCACCTAGTGCAG”, for which the binding signal is 20000 fluorescence intensity (a.u.).

The values are drawn from article PMC7819943, “Rice protein-binding microarrays: a tool to detect cis-acting elements near promoter regions in rice”.
